Results as given in publication PMC10997794, “Seeding the meiotic DNA break machinery and initiating recombination on chromosome axes” (Nature Communications, 2024).
Results are given in words; binding and its absence hold for the method and conditions named. Some binding calls cover weakened binding; strength is not graded here. Where a sequence is shown, tags or fusion partners need not be part of it.

Experiments:
Assay in all cases: two-hybrid; mouse proteins as bait and prey co-transformed into Y2HGold yeast; growth on -Leu -Trp -Ade -His plates for 2-7 days
[1] = biological target: ANKRD31, yeast two-hybrid fusion (mouse)
[2] = biological target: T1, DBF4, yeast two-hybrid fusion (mouse) (UniProt Q9QZ41)
T1 sequence: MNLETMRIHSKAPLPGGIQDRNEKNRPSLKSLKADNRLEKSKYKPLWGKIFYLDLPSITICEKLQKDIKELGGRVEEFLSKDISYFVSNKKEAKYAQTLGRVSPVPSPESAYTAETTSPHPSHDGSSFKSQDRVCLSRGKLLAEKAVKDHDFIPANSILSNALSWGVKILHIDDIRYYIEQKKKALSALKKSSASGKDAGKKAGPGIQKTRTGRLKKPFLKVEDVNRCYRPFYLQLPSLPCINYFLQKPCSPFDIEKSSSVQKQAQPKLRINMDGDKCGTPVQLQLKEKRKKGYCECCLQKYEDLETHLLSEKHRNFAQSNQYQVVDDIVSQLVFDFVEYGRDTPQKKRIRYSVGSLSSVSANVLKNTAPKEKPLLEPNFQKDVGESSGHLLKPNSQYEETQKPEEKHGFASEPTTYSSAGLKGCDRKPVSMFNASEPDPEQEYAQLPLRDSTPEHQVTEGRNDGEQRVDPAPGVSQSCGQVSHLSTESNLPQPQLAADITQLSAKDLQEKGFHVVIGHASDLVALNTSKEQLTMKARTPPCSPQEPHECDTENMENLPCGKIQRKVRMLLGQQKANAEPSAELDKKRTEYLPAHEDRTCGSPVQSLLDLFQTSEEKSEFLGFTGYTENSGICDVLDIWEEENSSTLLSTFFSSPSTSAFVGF

[3] = biological target: T2, HORMAD1, yeast two-hybrid fusion (mouse) (UniProt Q9D5T7)
T2 sequence: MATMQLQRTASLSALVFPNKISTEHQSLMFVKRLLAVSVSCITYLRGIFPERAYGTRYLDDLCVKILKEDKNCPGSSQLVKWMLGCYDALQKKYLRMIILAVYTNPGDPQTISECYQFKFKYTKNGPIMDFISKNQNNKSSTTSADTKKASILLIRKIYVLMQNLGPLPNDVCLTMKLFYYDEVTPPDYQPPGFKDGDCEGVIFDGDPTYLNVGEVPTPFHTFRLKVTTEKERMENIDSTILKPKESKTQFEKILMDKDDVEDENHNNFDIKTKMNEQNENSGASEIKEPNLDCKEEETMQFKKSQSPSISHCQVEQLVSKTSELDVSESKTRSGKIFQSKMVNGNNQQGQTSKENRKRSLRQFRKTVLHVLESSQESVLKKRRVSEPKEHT

[4] = biological target: T3, IHO1, wild type (1-574), yeast two-hybrid fusion (mouse) (UniProt Q6PDM4)
T3 sequence: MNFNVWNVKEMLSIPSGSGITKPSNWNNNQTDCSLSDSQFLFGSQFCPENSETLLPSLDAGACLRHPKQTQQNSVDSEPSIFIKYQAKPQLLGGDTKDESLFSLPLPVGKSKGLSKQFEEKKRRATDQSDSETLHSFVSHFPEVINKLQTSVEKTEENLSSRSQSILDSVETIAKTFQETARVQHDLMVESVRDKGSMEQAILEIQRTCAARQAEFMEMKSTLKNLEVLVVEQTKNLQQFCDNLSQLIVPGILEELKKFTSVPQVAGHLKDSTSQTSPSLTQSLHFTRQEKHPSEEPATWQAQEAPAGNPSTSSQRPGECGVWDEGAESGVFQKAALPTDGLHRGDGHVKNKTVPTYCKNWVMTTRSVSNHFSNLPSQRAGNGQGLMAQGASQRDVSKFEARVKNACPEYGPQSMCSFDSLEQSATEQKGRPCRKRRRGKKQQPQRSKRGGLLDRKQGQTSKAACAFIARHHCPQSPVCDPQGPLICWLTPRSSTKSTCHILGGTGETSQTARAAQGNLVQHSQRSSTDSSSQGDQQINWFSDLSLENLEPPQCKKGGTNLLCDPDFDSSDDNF

[5] = biological target: T4, MEI1, yeast two-hybrid fusion (mouse) (UniProt Q9D4I2)
T4 sequence: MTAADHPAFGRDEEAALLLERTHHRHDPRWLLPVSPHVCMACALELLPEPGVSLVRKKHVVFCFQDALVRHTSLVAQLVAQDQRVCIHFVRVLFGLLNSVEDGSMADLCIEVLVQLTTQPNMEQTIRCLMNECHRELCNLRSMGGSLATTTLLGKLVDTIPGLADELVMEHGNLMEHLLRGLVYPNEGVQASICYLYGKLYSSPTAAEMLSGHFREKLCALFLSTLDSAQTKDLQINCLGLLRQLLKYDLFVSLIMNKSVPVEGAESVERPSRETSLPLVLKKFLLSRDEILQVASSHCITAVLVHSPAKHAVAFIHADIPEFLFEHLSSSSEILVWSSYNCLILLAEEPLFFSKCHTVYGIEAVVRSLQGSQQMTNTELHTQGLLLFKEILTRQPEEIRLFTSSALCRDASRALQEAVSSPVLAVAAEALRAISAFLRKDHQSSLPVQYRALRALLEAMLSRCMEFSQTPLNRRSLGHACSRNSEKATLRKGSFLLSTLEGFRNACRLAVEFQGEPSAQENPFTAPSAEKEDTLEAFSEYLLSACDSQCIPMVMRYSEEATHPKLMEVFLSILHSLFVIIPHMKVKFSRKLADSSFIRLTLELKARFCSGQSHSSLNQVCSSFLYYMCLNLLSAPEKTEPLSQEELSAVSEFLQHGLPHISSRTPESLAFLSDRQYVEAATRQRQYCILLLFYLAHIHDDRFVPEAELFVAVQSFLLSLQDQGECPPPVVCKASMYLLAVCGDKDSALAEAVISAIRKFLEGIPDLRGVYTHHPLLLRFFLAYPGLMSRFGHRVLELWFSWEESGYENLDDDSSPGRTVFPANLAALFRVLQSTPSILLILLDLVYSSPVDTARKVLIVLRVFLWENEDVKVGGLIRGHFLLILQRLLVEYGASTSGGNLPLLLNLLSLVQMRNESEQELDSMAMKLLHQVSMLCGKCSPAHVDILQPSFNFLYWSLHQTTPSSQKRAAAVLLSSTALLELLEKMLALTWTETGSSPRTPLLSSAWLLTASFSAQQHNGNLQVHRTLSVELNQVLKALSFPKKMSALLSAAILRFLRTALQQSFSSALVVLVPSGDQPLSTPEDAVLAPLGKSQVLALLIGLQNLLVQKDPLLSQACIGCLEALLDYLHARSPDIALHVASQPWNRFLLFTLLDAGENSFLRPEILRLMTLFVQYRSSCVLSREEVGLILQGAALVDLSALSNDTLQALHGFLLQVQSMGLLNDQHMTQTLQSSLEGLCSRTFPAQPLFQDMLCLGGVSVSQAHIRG

[6] = biological target: T5, REC114, yeast two-hybrid fusion (mouse) (UniProt Q9CWH4)
T5 sequence: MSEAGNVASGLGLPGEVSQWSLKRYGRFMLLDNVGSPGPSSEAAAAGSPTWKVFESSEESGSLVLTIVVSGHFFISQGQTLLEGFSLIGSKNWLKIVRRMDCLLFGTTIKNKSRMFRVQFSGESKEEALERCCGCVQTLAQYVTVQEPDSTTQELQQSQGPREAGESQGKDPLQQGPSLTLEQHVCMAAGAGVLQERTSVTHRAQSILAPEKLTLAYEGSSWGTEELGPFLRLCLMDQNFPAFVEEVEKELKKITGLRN

B1: IHO1_C7Δ (IHO1 without its last 7 amino acids), yeast two-hybrid fusion (domain or fragment, UniProt Q6PDM4 1-567)
chain: MNFNVWNVKEMLSIPSGSGITKPSNWNNNQTDCSLSDSQFLFGSQFCPENSETLLPSLDAGACLRHPKQTQQNSVDSEPSIFIKYQAKPQLLGGDTKDESLFSLPLPVGKSKGLSKQFEEKKRRATDQSDSETLHSFVSHFPEVINKLQTSVEKTEENLSSRSQSILDSVETIAKTFQETARVQHDLMVESVRDKGSMEQAILEIQRTCAARQAEFMEMKSTLKNLEVLVVEQTKNLQQFCDNLSQLIVPGILEELKKFTSVPQVAGHLKDSTSQTSPSLTQSLHFTRQEKHPSEEPATWQAQEAPAGNPSTSSQRPGECGVWDEGAESGVFQKAALPTDGLHRGDGHVKNKTVPTYCKNWVMTTRSVSNHFSNLPSQRAGNGQGLMAQGASQRDVSKFEARVKNACPEYGPQSMCSFDSLEQSATEQKGRPCRKRRRGKKQQPQRSKRGGLLDRKQGQTSKAACAFIARHHCPQSPVCDPQGPLICWLTPRSSTKSTCHILGGTGETSQTARAAQGNLVQHSQRSSTDSSSQGDQQINWFSDLSLENLEPPQCKKGGTNLLCDPDF
[1]
  binding: binds
[2]
  binding: binds
[3]
  binding: no binding
[4]
  binding: binds
[5]
  binding: binds
[6]
  binding: binds
